The values that follow come from PMC12136788.

T1: UNK ZnF1-6 (called full-length) (human, UniProt Q9C0B0 30-357)
T1 sequence: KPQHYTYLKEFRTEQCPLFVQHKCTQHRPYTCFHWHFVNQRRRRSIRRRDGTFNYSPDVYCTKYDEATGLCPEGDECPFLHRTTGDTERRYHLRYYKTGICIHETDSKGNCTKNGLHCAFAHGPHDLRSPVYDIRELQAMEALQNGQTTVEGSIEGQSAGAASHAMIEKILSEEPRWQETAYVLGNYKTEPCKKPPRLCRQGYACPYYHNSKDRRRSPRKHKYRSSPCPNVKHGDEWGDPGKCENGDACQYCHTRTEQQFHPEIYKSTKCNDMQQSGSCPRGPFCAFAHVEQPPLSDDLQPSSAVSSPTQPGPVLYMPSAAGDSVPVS

B1: chr13:108229279:108229380:+|CDS|ENSG00000139826|unk|FALSE|unique (ssRNA)
RNA: GGGAGUUCUACAGUCCGACGAUCGCUAAUAGCCUUGGCUUCAUGGUCUUGGGCUCUCUGCCGUAUUUCUCUUUUACCUUUAAUAGUGACUUUUCAUCUGUAUGGAGGCAUUAUCUUACUUUUGUUAAUAUUCAUAUCAAUAGCCAACAGAGGAUUGAGCAUCA
B2: chr12:120764159:120764260:-|3pUTR|ENSG00000157837|msi1|total|mutant (ssRNA)
RNA: GGGAGUUCUACAGUCCGACGAUCACACACACACCGAUAUAUAUGAAUAAACAAAAAUGAAAUCCUGCUAAGAUCACGCUGUGCCGCUGACAGGGGCUUGCUGUCGUUUUGAGCAUGUCGAGCAGUUUACUGUGGCUUCCUUGUCAACAGAGGAUUGAGCAUCA
B3: chr1:965281:965395:+|3pUTR|ENSG00000187961|unk|total|mutant (ssRNA)
RNA: GGGAGUUCUACAGUCCGACGAUCCCAUCCGUUCACGUCUCUGCAUCCAUUCCUUCAUGUCUUUAUUCCGUUGUUUAUUUAUUCCGUUAUUUAUCUUAUUUAUUGAGGGGUGAGGAGUGCCACGGCUGCCCGUUUACACCUUUACAACAGAGGAUUGAGCAUCA
B4: chr15:90882754:90882855:+|3pUTR|ENSG00000140564|msi1_unk|FALSE|overlapping (ssRNA)
RNA: GGGAGUUCUACAGUCCGACGAUCCACUUUGUGAUUAUUUCACUUUAGAUGCUGAUGAUUUGUUUUUGUAUUUUUAAUGGGGGUAGCAGCUGGACUACCCACGUUCUCACACCCACCGUCCGCCCUGCUCCUCCCUGGCUGCCCCAACAGAGGAUUGAGCAUCA
B5: chr12:48342538:48342639:-|3pUTR|ENSG00000167528|unk|FALSE|unique (ssRNA)
RNA: GGGAGUUCUACAGUCCGACGAUCUUGUUAAACAUUUUGAGUAUCACUCUUGCAUACUGUUACUAUUAUAUUUUCUCUAUAUAUAGACAGAAAGGCCAUUUUAGAAUAUUAAAGGCUCUGAAAAUUUCUGCAGUAGACCCAACUCAACAGAGGAUUGAGCAUCA
B6: chr9:15468732:15468834:-|CDS|ENSG00000164985|unk|total|mutant (ssRNA)
RNA: GGGAGUUCUACAGUCCGACGAUCAAUCCGGAAAACAAUUAUGAUGAAUGUAUAUUGUUUUCUCAGAUACGGCGAUUCAAAGUCCGUCAGGUAAUCAUGGAAAAGUCUACAAUGUUGUAUAACAAGUUUAAGAACAUGUUCUUGCAACAGAGGAUUGAGCAUCA
B7: chr10:73423578:73424772:-|three_prime_utr|ENSG00000166343|control|control|control (ssRNA)
RNA: GGGAGUUCUACAGUCCGACGAUCCCAGUAUACUGCAGUGCAUACUAUAUCAUGUUUCUUGGAAGCUCCUGUCAGCUGGAUAAUAGGCAAUUAGAAGAGAAAGUGGACGGCGGGAUUUAAAUAGAUCAUAACUGGACAUCUGGACAACAGAGGAUUGAGCAUCA
B8: chr15:43456694:43456846:-|CDS|ENSG00000067369|unk|FALSE|unique (ssRNA)
RNA: GGGAGUUCUACAGUCCGACGAUCAGACACCAGGGAUGACAUUAGUAUUUUAGCCACUGGUUGCAAGGGCAGAGAAGAAACGGUAGCAGAAGAUGUUUGUAUUGAUCUCACUUGUGAUUCGGGGAGUCAGGCAGUUCCGUCACCCAACAGAGGAUUGAGCAUCA
B9: chr17:41822664:41822765:+|3pUTR|ENSG00000141756|msi1|total|mutant (ssRNA)
RNA: GGGAGUUCUACAGUCCGACGAUCUUCCUUAAAAUGUUUGGAUUUGCAAAGCCAAUUUGGGGCCUGUGGAGCCUGGGGUUGGACCGGGCCAUGGCUGGUCCCCCACCAUACCUCCCCUCCACAUCACUGACACAGCUGAGCUUGCAACAGAGGAUUGAGCAUCA
B10: chr5:72209348:72209524:+|3pUTR|ENSG00000131711|msi1_unk|FALSE|overlapping (ssRNA)
RNA: GGGAGUUCUACAGUCCGACGAUCUUAUGUCUUAUAAUCCUGCAUCACUUCUAUCCUAUCCAGUCAUAUCUAAUGUAGAAAAUUAGUUUCCAGUGAAAGUAAUAUGUAGUGCUUUUAUGAUAUUUGUGUGCAAUAUCCCCUCUUCAACAGAGGAUUGAGCAUCA
B11: chr11:20048915:20049016:+|CDS|ENSG00000166833|unk|total|mutant (ssRNA)
RNA: GGGAGUUCUACAGUCCGACGAUCGAGCAGUGGGAGCAGCAGUCCUCUCUACAGCAAGAAUGUGGACCUCAACCAGUCUCCGCCCGCCUCCAGCCCCAGCUCAGCCCACUCGGCCCCUUCCAACAGCCUCACCUGGGGCACCAACAACAGAGGAUUGAGCAUCA
B12: chr6:149410404:149410522:+|3pUTR|ENSG00000055208|unk|FALSE|bound_elsewhere (ssRNA)
RNA: GGGAGUUCUACAGUCCGACGAUCUUAUAUUUCUAUAUGUAUAGUGUAAUAGCCUUUUGUUAACUAAUUUUCUUUUUUCCUUUUAGUAAUUAAGCACGAUCAUGUCCCUUUUUAAGCCUUACCUGAGAGGAACAAUGCCUUAAACAACAGAGGAUUGAGCAUCA
B13: chr10:30336814:30336915:-|CDS|ENSG00000107951|unk|total|mutant (ssRNA)
RNA: GGGAGUUCUACAGUCCGACGAUCGUAUUUUCCAGACUGCACCGUCAGACCCUUUGGCUCCUCAGUCAACACUUUUGGGAAGUCCGGAUGUGAUUUGGACAUGUUUUUGGAUCCCGAUGAAACCAGAAACCUCAGCGCUCACAACAACAGAGGAUUGAGCAUCA
B14: chr12:66123492:66123593:-|3pUTR|ENSG00000139233|msi1|total|mutant (ssRNA)
RNA: GGGAGUUCUACAGUCCGACGAUCAUGCUACCCAAUAUCCAGUUAUAAUCAGGCCUCAACGUUCUGUCAGGUAUUAAUAUGGUCCGAAUUGUUCUUACAACUGGUAAUUACCGUCAACCGAGAUAAAACAGAUGAUGUACUGACCAACAGAGGAUUGAGCAUCA

Some of the results follow.

In the test the target is T1, UNK ZnF1-6 (called full-length). The test can be described thus: nsRBNS (natural sequence RNA bind-n-seq); RBNS binding buffer (assumed for nsRBNS): 25 mM Tris pH 7.5, 150 mM KCl, 3 mM MgCl2, 0.01% Triton X-100, 500 ug/ml BSA, 20 U/ml SUPERase-In, 4 C; UNK is unkempt and MSI1 is Musashi-1; names of the RNAs are library labels; protein concentration not given here; high values mean tight binding.
As for B1, the binding signal was found to be 2.35 enrichment R.

Consider B2, for which the binding signal was determined as 0.805 enrichment R.

For the molecule B3, the binding signal turned out to be 5.63 enrichment R.

B4 had a binding signal of 1.87 enrichment R.

Molecule B5 registered a binding signal of 3.54 enrichment R.

Turning to B6, the binding signal was found to be 0.223 enrichment R.

B7 gave a binding signal of 1.23 enrichment R.

Consider B8, for which the binding signal was found to be 2.14 enrichment R.

In the case of B9, the binding signal turned out to be 0.628 enrichment R.

For B10, the binding signal came to 1.93 enrichment R.

As to B11, the binding signal is 0.913 enrichment R.

The molecule B12 had a binding signal of 66 enrichment R.

B13 had a binding signal of 0.61 enrichment R.

Molecule B14 had a binding signal of 0.232 enrichment R.
